Data reported in PubChem BioAssay AID504333 (National Center for Advancing Translational Sciences (NCATS), 2011).
In all, about 360,000 compounds went through this assay and about 16,000 (4.4%) were called active. Inconclusive results, whose numbers are uncertain, are shown with a selection of clear calls. The call rests on the fitted dose curve; in most records, active means well fitted inhibition curve with a large enough effect; inconclusive means small, poorly fitted or top-dose-only effect; inactive means no such curve, though single readings can be large or run the other way. Where the call is inconclusive, the potency comes from a doubtful curve fit.

The molecules below were run against Bromodomain adjacent to zinc finger domain protein 2B (Homo sapiens) (UniProt Q9UIF8) (assay: qHTS Assay for Inhibitors of BAZ2B). Details: AlphaScreen BAZ2B-H3K14Ac peptide displacement; series mostly up to 114 µM.
Sequence of UniProt Q9UIF8 (Q9UIF8 whole entry, looked up, the tested form may be a part): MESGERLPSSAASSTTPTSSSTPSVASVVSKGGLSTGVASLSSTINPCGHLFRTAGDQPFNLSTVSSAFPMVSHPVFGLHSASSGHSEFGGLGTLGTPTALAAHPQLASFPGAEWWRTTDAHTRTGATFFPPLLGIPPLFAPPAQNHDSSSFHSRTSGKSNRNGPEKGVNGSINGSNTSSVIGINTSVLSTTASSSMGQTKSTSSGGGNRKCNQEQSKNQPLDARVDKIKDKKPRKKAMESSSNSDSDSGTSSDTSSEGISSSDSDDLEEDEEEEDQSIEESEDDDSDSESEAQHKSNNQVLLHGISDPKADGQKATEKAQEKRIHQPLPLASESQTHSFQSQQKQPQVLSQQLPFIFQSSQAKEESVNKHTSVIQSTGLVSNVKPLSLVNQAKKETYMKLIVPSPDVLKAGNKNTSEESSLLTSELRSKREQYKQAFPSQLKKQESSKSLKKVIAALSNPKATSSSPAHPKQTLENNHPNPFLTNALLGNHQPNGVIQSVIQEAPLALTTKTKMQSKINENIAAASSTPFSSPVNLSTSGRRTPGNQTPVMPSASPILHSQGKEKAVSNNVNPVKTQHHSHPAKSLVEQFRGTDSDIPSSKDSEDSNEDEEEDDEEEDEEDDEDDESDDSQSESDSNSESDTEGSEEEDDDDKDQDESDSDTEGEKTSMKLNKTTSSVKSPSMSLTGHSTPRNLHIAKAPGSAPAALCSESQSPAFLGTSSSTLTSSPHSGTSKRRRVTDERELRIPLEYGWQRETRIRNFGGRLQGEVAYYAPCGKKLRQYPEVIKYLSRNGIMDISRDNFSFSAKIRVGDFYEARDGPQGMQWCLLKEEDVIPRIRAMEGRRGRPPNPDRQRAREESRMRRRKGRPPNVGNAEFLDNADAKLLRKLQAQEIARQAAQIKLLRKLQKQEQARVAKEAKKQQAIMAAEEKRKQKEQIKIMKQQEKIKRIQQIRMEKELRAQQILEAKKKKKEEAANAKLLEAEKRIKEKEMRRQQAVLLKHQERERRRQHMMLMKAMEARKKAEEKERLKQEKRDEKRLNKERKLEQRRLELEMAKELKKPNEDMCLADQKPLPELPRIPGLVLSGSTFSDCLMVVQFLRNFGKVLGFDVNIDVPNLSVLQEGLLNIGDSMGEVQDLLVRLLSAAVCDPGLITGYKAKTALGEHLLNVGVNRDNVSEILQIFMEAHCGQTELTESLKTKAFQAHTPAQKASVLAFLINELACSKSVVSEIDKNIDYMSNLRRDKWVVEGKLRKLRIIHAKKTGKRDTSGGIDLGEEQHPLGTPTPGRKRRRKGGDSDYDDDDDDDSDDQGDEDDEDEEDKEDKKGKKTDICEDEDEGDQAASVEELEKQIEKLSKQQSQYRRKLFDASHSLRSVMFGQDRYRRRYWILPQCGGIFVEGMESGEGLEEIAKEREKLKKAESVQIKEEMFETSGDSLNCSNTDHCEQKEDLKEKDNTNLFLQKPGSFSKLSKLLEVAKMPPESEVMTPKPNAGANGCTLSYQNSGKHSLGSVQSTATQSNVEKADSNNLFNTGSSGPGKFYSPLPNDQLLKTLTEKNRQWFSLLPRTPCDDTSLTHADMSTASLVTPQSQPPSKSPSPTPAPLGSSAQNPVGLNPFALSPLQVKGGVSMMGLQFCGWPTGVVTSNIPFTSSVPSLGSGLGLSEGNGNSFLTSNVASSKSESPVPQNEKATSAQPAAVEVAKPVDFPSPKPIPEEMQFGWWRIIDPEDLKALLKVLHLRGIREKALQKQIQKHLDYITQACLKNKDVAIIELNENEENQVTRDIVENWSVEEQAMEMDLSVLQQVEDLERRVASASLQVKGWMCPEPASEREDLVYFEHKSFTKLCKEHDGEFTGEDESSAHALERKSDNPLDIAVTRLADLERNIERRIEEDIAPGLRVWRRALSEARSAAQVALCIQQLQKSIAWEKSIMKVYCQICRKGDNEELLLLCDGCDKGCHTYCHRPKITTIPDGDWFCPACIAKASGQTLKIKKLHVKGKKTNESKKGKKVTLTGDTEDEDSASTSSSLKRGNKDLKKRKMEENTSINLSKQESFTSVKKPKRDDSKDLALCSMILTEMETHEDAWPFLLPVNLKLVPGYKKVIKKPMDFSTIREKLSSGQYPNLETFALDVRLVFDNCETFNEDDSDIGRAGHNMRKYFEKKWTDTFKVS
How it was run: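 Inhibition is scored as reduced AlphaScreen emission. The BAZ2B/b-H3(5-23)K14Ac complex (50 nM each) in PBS pH 7.4, 0.01% Tween-20 meets compound (up to 110 uM) for 30 min at RT before bead addition.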
Further: nearly all actives have a fitted effect of over 60% in size.
Potency means the concentration at half of the fitted maximal effect; tags describe the fitted curve by direction and shape.

Question: How did the Potency turn out when `Cc1ccc(NC(=O)CCc2nc3sc4c(c3c(=O)[nH]2)CCCC4)c(Br)c1` was run?
Answer: Its Potency is active: 50.1 µM.

Question: With `CC(=O)OCC1=C(C(=O)O)N2C(=O)C(NC(=O)C(C)Cn3cc(Cl)cn3)C2SC1` (configuration not stated) as the molecule, how does the Potency read?
Answer: Its Potency is inconclusive: 89.1 µM [inhibitor, single point].

Question: `Cc1cc(C(=O)O)ccc1-n1c(C)cc(/C=C2\SC(=O)NC2=O)c1C` was tested. Which Potency did it give?
Answer: Its Potency is “inactive”.

Question: Which Potency does the source give for `C/C=C\C=C/C(=O)Nc1cccc(C2=NOC3(C2)C[C@@H](C(N)=O)N(C(=O)COc2ccc(Cl)cc2)C3)c1` (some centres not stated) here?
Answer: The Potency was inconclusive: 63.1 µM [inhibitor, partial curve, poor fit].

Question: How did the Potency turn out when `Cc1ccccc1NC(=O)CC1(c2ccc(N(C)C)cc2)C(=O)c2ccccc2C1=O` was run?
Answer: The Potency was inconclusive: 50.1 µM [inhibitor, partial curve].

Question: With `CC1CN(CCOc2ccccc2C(C)C)CC(C)O1` (configuration not stated) as the molecule, how does the Potency read?
Answer: Its Potency is inconclusive: 79.4 µM [inhibitor, single point].

Question: With `O=c1c(C(c2ccccc2)c2c(O)sc3ccccc3c2=O)c(O)sc2ccccc12` as the molecule, how does the Potency read?
Answer: The Potency was active: 28.2 µM.

Question: With `C/C(=N\NC(=O)c1ccc(Cl)cc1)c1ccccn1` as the molecule, how does the Potency read?
Answer: Its Potency is active: 7.94 µM.

Question: For `C=CCNc1ccc(N2C(=O)CCCC2=O)cc1[N+](=O)[O-]`, which Potency is on record?
Answer: Its Potency is “inactive”.

Question: How did the Potency turn out when `COc1ccccc1-n1c(SCC(=O)N(C)C2CCS(=O)(=O)C2)nc2ccccc2c1=O` (configuration not stated) was run?
Answer: Its Potency is “inactive”.

Question: For `O=C(N/N=C/c1ccc(-c2cccc(C(F)(F)F)c2)o1)c1ccccc1Br`, which Potency is on record?
Answer: Its Potency is inconclusive: 28.2 µM [inhibitor, full curve, poor fit].

Question: With `CCn1nnc2cc(C(=O)Nc3ccc(C)c(Cl)c3)ccc21` as the molecule, how does the Potency read?
Answer: Its Potency is “inactive”.

Question: How did the Potency turn out when `Cc1ccc(NC(=O)c2cc(S(=O)(=O)NC3CCCCC3)ccc2F)cc1Cl` was run?
Answer: The Potency was “inactive”.

Question: For `O=C1c2ccccc2NC(c2ccc(-c3cccc([N+](=O)[O-])c3)o2)N1O` (configuration not stated), which Potency is on record?
Answer: The Potency was inconclusive: 44.7 µM [inhibitor, partial curve].

Question: Which Potency does the source give for `O=C(CSc1ccc2c(c1)OCCO2)N1CCN(c2ccccc2O)CC1` here?
Answer: The Potency was “inactive”.

Question: For `COc1ccc(C2Nc3ccccc3NC3=C2C(=O)CC(C)(C)C3)c(OC)c1OC` (configuration not stated), which Potency is on record?
Answer: Its Potency is inconclusive: 89.1 µM [inhibitor, single point].

Question: For `CCCCC(=O)N1CCN(c2ccc(OC)cc2[N+](=O)[O-])CC1`, which Potency is on record?
Answer: Its Potency is inconclusive: 70.8 µM [inhibitor, single point].

Question: For `CN1CCN(S(=O)(=O)c2cccc(C(=O)Oc3ccc(C(C)(C)C)cc3)c2)CC1`, which Potency is on record?
Answer: The Potency was inconclusive: 44.7 µM [inhibitor, partial curve].

Question: `CC1Cc2ccccc2N1S(=O)(=O)c1nnc(NC(=O)c2cccc(F)c2)s1` (configuration not stated) was tested. Which Potency did it give?
Answer: The Potency was “inactive”.

Question: How did the Potency turn out when `CC(/C=C1\SC(=S)N(NS(=O)(=O)c2ccc(C)cc2)C1=O)=C\c1ccccc1` was run?
Answer: The Potency was active: 35.5 µM.

Question: How did the Potency turn out when `CSc1[nH]c(=O)c(C(=O)O)cc1C#N` was run?
Answer: The Potency was active: 50.1 µM.

Question: For `CC(C)OCCCNC(=O)CN1C(=O)c2cccc3cccc1c23`, which Potency is on record?
Answer: The Potency was “inactive”.

Question: With `CC1C(=O)N2CCCc3cc(NC(=O)C(=O)NCCCc4ccccc4)cc1c32` (configuration not stated) as the molecule, how does the Potency read?
Answer: The Potency was inconclusive: 70.8 µM [inhibitor, partial curve].

Question: Which Potency does the source give for `COc1cc([N+](=O)[O-])cc(/C=N/NC(=O)C(C)Nc2ccccc2C)c1O` (configuration not stated) here?
Answer: Its Potency is inconclusive: 79.4 µM [inhibitor, single point].

Question: How did the Potency turn out when `COc1ccc(/C=C/C(=O)c2ccccc2O)cc1` was run?
Answer: Its Potency is inconclusive: 12.6 µM [inhibitor, partial curve].

Question: `COc1ccc(CCNC(=O)CN2c3cccc4cccc(c34)S2(=O)=O)cc1OC` was tested. Which Potency did it give?
Answer: The Potency was “inactive”.

Question: `CCOC(=O)CNc1ccc2c(c1)OCO2` was tested. Which Potency did it give?
Answer: Its Potency is inconclusive: 39.8 µM [inhibitor, full curve, poor fit].

Question: `CCOc1ccc(-n2c(C)cc(/C=N/N(C)C)c2C)cc1` was tested. Which Potency did it give?
Answer: The Potency was inconclusive: 50.1 µM [inhibitor, partial curve].

Question: How did the Potency turn out when `OC(CON=C1c2ccccc2-c2ccccc21)CN1CCNCC1` (configuration not stated) was run?
Answer: The Potency was active: 20 µM.

Question: How did the Potency turn out when `O=C(Oc1ccc2ccccc2c1Cl)N1CCCCCC1` was run?
Answer: The Potency was “inactive”.

Question: For `COc1ccc(N2CCN(S(=O)(=O)c3cccc4nsnc34)CC2)cc1`, which Potency is on record?
Answer: The Potency was inconclusive: 39.8 µM [inhibitor, full curve].

Question: Which Potency does the source give for `CCOC(=O)c1sc(N2C(=O)C(O)=C(C(=O)c3ccco3)C2c2ccco2)nc1C` (configuration not stated) here?
Answer: The Potency was inconclusive: 50.1 µM [inhibitor, partial curve].

Question: Which Potency does the source give for `Cc1ccc(-c2c[n+](CC(=O)Nc3ccc(C)cc3C)c3n2CCC3)cc1` here?
Answer: Its Potency is “inactive”.

Question: `Cc1cc(NC(=O)CSc2ccc3nnc(-c4ccc(Cl)cc4)n3n2)no1` was tested. Which Potency did it give?
Answer: The Potency was “inactive”.

Question: `CCOc1ccccc1N1C(=O)c2cccnc2C1=O` was tested. Which Potency did it give?
Answer: Its Potency is inconclusive: 89.1 µM [inhibitor, single point].

Question: How did the Potency turn out when `CCOC(=O)N1CCN(C(=S)NC(=O)c2ccc(F)cc2)CC1` was run?
Answer: The Potency was inconclusive: 79.4 µM [inhibitor, single point].

Question: `O=C(O)c1cnn(-c2ccccc2)c1-c1ccncc1` was tested. Which Potency did it give?
Answer: Its Potency is inconclusive: 79.4 µM [inhibitor, single point].

Question: How did the Potency turn out when `O=C(N/N=C/c1ccccn1)C(O)c1ccccc1` (configuration not stated) was run?
Answer: The Potency was inconclusive: 50.1 µM [inhibitor, partial curve, poor fit].

Question: For `CCCC(=O)N(Cc1cc(=O)[nH]c2ccccc12)c1cccc(C)c1`, which Potency is on record?
Answer: Its Potency is “inactive”.

Question: How did the Potency turn out when `COc1ccc(Cn2c(=S)[nH]c3cc(C(=O)NCCCN4CCOCC4)ccc3c2=O)cc1` was run?
Answer: Its Potency is “inactive”.

Question: How did the Potency turn out when `CCN1C(=O)c2n[nH]c(C(=O)OC)c2C1=O` was run?
Answer: The Potency was inconclusive: 63.1 µM [inhibitor, partial curve, poor fit].

Question: With `COC(=O)/C=C1/S/C(=N/NC(=O)c2ccc(Cl)cc2Cl)NC1=O` as the molecule, how does the Potency read?
Answer: The Potency was inconclusive: 0.708 µM [inhibitor, full curve, poor fit].

Question: `Cc1cc(N=Nc2ccccc2)c(NCC(O)C(O)C(O)CO)cc1C` (configuration not stated) was tested. Which Potency did it give?
Answer: The Potency was active: 15.8 µM.

Question: `COc1ccccc1N1CCN(/N=C/C=C\c2ccco2)CC1` was tested. Which Potency did it give?
Answer: The Potency was active: 50.1 µM.

Question: How did the Potency turn out when `O=C(NC12CC3CC(CC(C3)C1)C2)c1ccccc1` was run?
Answer: The Potency was “inactive”.

Question: Which Potency does the source give for `O=C(CSc1nc(O)c(Cc2ccccc2)c(=O)[nH]1)Nc1nc2c(s1)CCCC2` here?
Answer: The Potency was inconclusive: 89.1 µM [inhibitor, single point].

Question: For `Cc1ccc2nc(/C(C#N)=C\c3ccc(N4CCOCC4)o3)[nH]c2c1`, which Potency is on record?
Answer: Its Potency is inconclusive: 79.4 µM [inhibitor, single point].
